Experimental data published in the supplement of paper PMC12217912.
The list shows a part of the results. The full chains were built here from the parent and the listed change. Values near 0.05 are background.

B1: TEV protease; numbered along this chain (parent)
chain: MGESLFKGPRDYNPISSSICHLTNESDGHTTSLYGIGFGPFIITNKHLFRRNNGTLVVQSLHGVFKVKDTTTLQQHLVDGRDMIIIRMPKDFPPFPQKLKFREPQREERICLVTTNFQTKSMSSMVSDTSCTFPSGDGIFWKHWIQTKDGQCGSPLVSTRDGFIVGIHSASNFTNTNNYFTSVPKNFMELLTNQEAQQWVSGWRLNADSVLWGGHKVFMVKPEEPFQPVKEATQL

Variants of: B1
Assay: raw area under fraction-flipped curve 0-4 h after induction (AUC4h, not background-subtracted), DNA-recorder readout of cleavage of the substrate (dimensionless); higher = more cleavage of the substrate by the protease variant
Details: temperature: 34 °C; time window: 0-4 h after rhamnose induction
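Also: Bxb1 expression induced with 0.2% (w/v) L-rhamnose at OD600 near 0.5, cultures sampled hourly, flipped fraction per protease–substrate barcode pair counted by paired-end Illumina sequencing.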

| Variant | area with substrate ENLYDQS | area with substrate ENLYEQS | area with substrate ENLYGQS | area with substrate ENLYHQS | area with substrate ENLYIQS | area with substrate ENLYKQS | area with substrate ENLYMQS | area with substrate ENLYNQS | area with substrate ENLYPQS | area with substrate ENLYQQS | area with substrate ENLYRQS | area with substrate ENLYSQS | area with substrate ENLYTQS | area with substrate ENLYWQS | area with substrate ENLYVQS | area with substrate ENLYLQS | area with substrate ENLYYQS |
| --- | --- | --- | --- | --- | --- | --- | --- | --- | --- | --- | --- | --- | --- | --- | --- | --- | --- |
| MGESLFKGPRDYNPISSSICHLTNESDGHTTSLYGIGFGPFIITNKHLFRRNNGTLVVQSLHGVFKVKDTTTLQQHLVDGRDMIIIRMPKDFPPFPQKLKFREPQREERICLVTTNFQTKSMSSMVSDTSCTFPSGDGIFWKHWIQTKDGQCGSPLVSTGDGFIVGIHSASNFTNTNNYFTSVPKNFMELLTNQEAQQWVSGWRLNADSVLWGGHKVFMVKPEEPFQPVKEATQL [R160G] | 0.0676 | 0.0764 | 0.0727 | 0.0755 | 0.117 | 0.0655 | 0.0779 | 0.0667 | 0.0592 | 0.055 | 0.0552 | 0.0647 | 0.101 | 0.0783 |  |  |  |
| MGESLFKGPRDYNPISSSICHLTNESDGHTTSLYGIGFGPFIITNKHLFRRNNGTLVVQSLHGVFKVKDTTTLQQHLVDGRDMIIIRMPKDFPPFPQKLKFREPQREERICLVTTNFQTKSMSSMVSDTSCTFPSGDGIFWKHWIQTKDGQCGSPLVSTMDGFIVGIHSASNFTNTNNYFTSVPKNFMELLTNQEAQQWVSGWRLNADSVLWGGHKVFMVKPEEPFQPVKEATQL [R160M] | 0.0579 |  | 0.0577 |  |  |  |  |  | 0.0715 |  |  |  |  |  | 0.108 |  |  |
| MGESLFKGPRDYNPISSSICHLTNESDGHTTSLYGIGFGPFIITNKHLFRRNNGTLVVQSLHGVFKVKDTTTLQQHLVDGRDMIIIRMPKDFPPFPQKLKFREPQREERICLVTTNFQTKSMSSMVSDTSCTFPSGDGIFWKHWIQTKDGQCGSPLVSTEDGFIVGIHSASNFTNTNNYFTSVPKNFMELLTNQEAQQWVSGWRLNADSVLWGGHKVFMVKPEEPFQPVKEATQL [R160E] | 0.0671 | 0.0701 | 0.0787 | 0.073 | 0.0898 | 0.0238 | 0.0929 | 0.0683 | 0.0743 | 0.048 | 0.0861 | 0.085 |  |  | 0.123 |  |  |
| MGESLFKGPRDYNPISSSICHLTNESDGHTTSLYGIGFGPFIITNKHLFRRNNGTLVVQSLHGVFKVKDTTTLQQHLVDGRDMIIIRMPKDFPPFPQKLKFREPQREERICLVTTNFQTKSMSSMVSDTRCTFPSGDGIFWKHWIQTKDGQCGSPLVSTRDGFIVGIHSASNFTNTNNYFTSVPKNFMELLTNQEAQQWVSGWRLNADSVLWGGHKVFMVKPEEPFQPVKEATQL [S130R] | 0.067 | 0.138 |  | 0.0481 |  | 0.0648 |  | 0.0675 | 0.0797 | 0.0616 | 0.0632 | 0.0704 |  | 0.0597 | 0.108 |  |  |
| MGESLFKGPRDYNPISSSICHLTNESDGHTTSLYGIGFGPFIITNKHLFRRNNGTLVVQSLHGVFKVKDTTTLQQHLVDGRDMIIIRMPKDFPPFPQKLKFREPQREERICLVTTNFQIKSMSSMVSDTSCTFPSGDGIFWKHWIQTKDGQCGSPLVSTRDGFIVGIHSASNFTNTNNYFTSVPKNFMELLTNQEAQQWVSGWRLNADSVLWGGHKVFMVKPEEPFQPVKEATQL [T119I] | 0.0548 | 0.0628 | 0.0441 | 0.0471 |  | 0.0539 |  |  | 0.106 | 0.0643 | 0.0505 |  |  |  | 0.0667 | 0.0589 | 0.0645 |
| MGESLFKGPRDYNPISSSICHLTNESDGHTTSLYGIGFGPFIITNKHLFRRNNGTLVVQSLHGVFKVKDTTTLQQHLVDGRDMIIIRMPKDFPPFPQKLKFREPQREERICLVTTNVQTKSMSSMVSDTSCTFPSGDGIFWKHWIQTKDGQCGSPLVSTRDGFIVGIHSASNFTNTNNYFTSVPKNFMELLTNQEAQQWVSGWRLNADSVLWGGHKVFMVKPEEPFQPVKEATQL [F117V] | 0.0726 | 0.066 | 0.0614 | 0.0804 |  | 0.0481 | 0.0768 | 0.0729 | 0.0153 | 0.118 | 0.0562 | 0.0664 | 0.0853 | 0.0768 | 0.106 |  | 0.0766 |
| MGESLFKGPRDYNPISSSICHLTNESDGHTTSLYGIGFGPFIITNKHLFRRNNGTLVVQSLHGVFKVKDTTTLQQHLVDGRDMIIIRMPKDFPPFPQKLKFREPQREERICLVTTNFQTKSMSSMVSDTSCTFPSGDGIFWKHGIQTKDGQCGSPLVSTRDGFIVGIHSASNFTNTNNYFTSVPKNFMELLTNQEAQQWVSGWRLNADSVLWGGHKVFMVKPEEPFQPVKEATQL [W144G] | 0.068 | 0.0611 | 0.0801 | 0.0712 | 0.0905 | 0.0658 | 0.0761 |  | 0.0721 | 0.0699 |  |  | 0.0707 | 0.0493 | 0.0975 | 0.0775 | 0.0722 |
| MGESLFKGPRDYNPISSSICHLTNESDGHTTSLYGIGFGPFIITNKHLFRRNNGTLVVQSLHGVFKVKDTTTLQQHLVDGRDMIIIRMPKDFPPFPQKLKFREPQREERICLVTTNFQTKSMSSMVSDTSCTFPSGDGIFWKHIIQTKDGQCGSPLVSTRDGFIVGIHSASNFTNTNNYFTSVPKNFMELLTNQEAQQWVSGWRLNADSVLWGGHKVFMVKPEEPFQPVKEATQL [W144I] | 0.059 | 0.0587 | 0.0477 | 0.0677 | 0.0765 |  |  |  | 0.0738 |  | 0.0541 | 0.0878 |  |  | 0.0938 |  | 0.0704 |
| MGESLFKGPRDYNPISSSICHLTNESDGHTTSLYGIGFGPFIITNKHLFRRNNGTLVVQSLHGVFKVKDTTTLQQHLVDGRDMIIIRMPKDFPPFPQKLKFREPQREERICLVTTNFQTKSMSSMVSDTSCTFPSGDGIFWKHWIQTKDGQCVSPLVSTRDGFIVGIHSASNFTNTNNYFTSVPKNFMELLTNQEAQQWVSGWRLNADSVLWGGHKVFMVKPEEPFQPVKEATQL [G153V] | 0.0429 |  |  | 0.0596 | 0.146 |  | 0.0679 | 0.0538 | 0.0592 |  |  |  |  |  | 0.0533 | 0.0466 | 0.0414 |
